Assay results taken from paper PMC4336329 (PLoS ONE, 2015).
Hit rate of the full screen: of about 310,000 compounds, about 14,000 (4.5%) showed an effect of 50% or more. The effect is printed as a negative number. The list shows a part of the results.

target: human ether-à-go-go-related gene (hERG) potassium channel (human, UniProt Q12809); experiment: primary screen, population patch clamp on CHO cells stably expressing hERG
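Also: peak tail current of the secondary pulse compared with the same well before compound.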

human ether-à-go-go-related gene (hERG) potassium channel, sequence (Q12809 whole entry, looked up): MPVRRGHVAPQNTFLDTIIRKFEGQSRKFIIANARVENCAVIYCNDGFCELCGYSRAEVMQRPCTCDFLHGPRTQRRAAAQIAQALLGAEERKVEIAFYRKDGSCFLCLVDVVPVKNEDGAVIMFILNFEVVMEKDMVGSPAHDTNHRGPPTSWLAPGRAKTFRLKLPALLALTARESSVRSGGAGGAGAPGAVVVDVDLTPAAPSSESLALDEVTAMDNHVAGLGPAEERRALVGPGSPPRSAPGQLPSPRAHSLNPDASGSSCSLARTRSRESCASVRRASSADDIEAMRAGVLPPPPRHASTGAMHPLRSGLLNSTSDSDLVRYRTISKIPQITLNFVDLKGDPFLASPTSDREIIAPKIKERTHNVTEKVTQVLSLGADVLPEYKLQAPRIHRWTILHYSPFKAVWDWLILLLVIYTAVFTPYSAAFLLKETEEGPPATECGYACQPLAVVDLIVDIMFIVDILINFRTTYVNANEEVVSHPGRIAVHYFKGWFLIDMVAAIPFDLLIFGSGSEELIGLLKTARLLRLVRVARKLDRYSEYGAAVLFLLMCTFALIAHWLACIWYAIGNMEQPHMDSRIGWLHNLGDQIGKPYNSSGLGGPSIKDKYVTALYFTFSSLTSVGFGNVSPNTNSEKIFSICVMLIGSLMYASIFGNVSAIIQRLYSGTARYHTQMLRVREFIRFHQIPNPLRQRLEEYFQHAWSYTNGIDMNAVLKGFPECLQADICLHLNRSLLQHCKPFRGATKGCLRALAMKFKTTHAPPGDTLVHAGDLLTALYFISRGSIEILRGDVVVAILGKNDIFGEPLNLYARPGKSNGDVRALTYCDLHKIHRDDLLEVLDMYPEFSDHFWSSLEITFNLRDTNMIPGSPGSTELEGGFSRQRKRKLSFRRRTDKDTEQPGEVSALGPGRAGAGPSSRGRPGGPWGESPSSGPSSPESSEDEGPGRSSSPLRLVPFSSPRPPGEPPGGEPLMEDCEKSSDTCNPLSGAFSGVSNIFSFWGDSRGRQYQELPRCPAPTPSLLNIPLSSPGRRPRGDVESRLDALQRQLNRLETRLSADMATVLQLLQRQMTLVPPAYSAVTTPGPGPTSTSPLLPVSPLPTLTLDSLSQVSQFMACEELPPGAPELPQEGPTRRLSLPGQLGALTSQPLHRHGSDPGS

| Compound | hERG current change (%, negative = inhibition) at 10uM |
| --- | --- |
| O=C(Nc1ccc2c(c1)nc1n2CCN(C2CCCCC2)C1)NC1CCCCC1 | -4.34% |
| CC(Nc1c([N+](=O)[O-])c(=O)oc2ccccc12)c1ccccc1 (stereo not shown) | -28.5% |
| C/C(=N\Nc1ccc([N+](=O)[O-])cc1[N+](=O)[O-])c1cc2c(ccc3ccccc32)oc1=O | -13.1% |
| Cc1cc(N2CCN(C)CC2)nc2ccc(NC(=O)c3ccccc3F)cc12 | -58.4% |
| O=C(Cc1ccccc1F)Nc1cc(S(=O)(=O)N2CCOCC2)ccc1N1CCOCC1 | -11.9% |
| COc1ccc(CC2SC(N)=NC2=O)cc1 (stereo not shown) | 24% |
| CCN(CC)S(=O)(=O)c1cccc(C(=O)N2CCCCC2)c1 | -2.8% |
| CCCSc1nc2c(cnn2-c2ccccc2)c(=O)n1N | -33.8% |
| COc1ccc(OC)c(Nc2nc(-c3sc(C)nc3C)cs2)c1 | 7.36% |
| COc1ccc(C)cc1NC(=O)CNCc1cccs1.Cl | -5.66% |
| O=C1Nc2ccccc2SC1c1ccccc1 (stereo not shown) | 7.15% |
| COc1ccc(/C=C2\CCCC3C2=NN(C(=O)COC(=O)CNC(=O)c2ccccc2)C3c2ccc(OC)cc2)cc1 (stereo not shown) | 21.3% |
| O=C(N/N=C1\CCCCc2ccccc21)c1ccccn1 | -2.26% |
| CCN(CC)CC.COc1cc2c(cc1OC)[C@H](C)N(C(=S)Nc1ccc(F)cc1)CC2 | -1.73% |
| CCCCC1=CC2=C(c3ccco3)C(=O)C(C)(OC(=O)c3ccc(OC)cc3)C(=O)C2=CN1C1CC1 (stereo not shown) | -11.2% |
| COC(=O)Cc1ccc(NC(=S)N2CCN(c3ccc(F)cc3)CC2)cc1 | -5.8% |
| COC(=O)C1SCC2C(=O)N(Cc3ccc(Cl)cc3)CC(=O)N21 (stereo not shown) | 22.1% |
| CCCCCc1c(C)nc(Nc2ccc(F)cc2)[nH]c1=O | 5.55% |
| COc1ccc2cc(C(=O)N3CCOCC3)sc(=O)c2c1OC | 7.91% |
| Nc1nonc1C(=O)NCCc1ccccc1 | 11.8% |
| COC(=O)c1c(C(=O)OC)c(-c2cccc(Cl)c2)n2c1CS(=O)C2 (stereo not shown) | 17.6% |
| Cc1ccc(CCNC(=O)c2cccc(NC3=NC4CS(=O)(=O)CC4S3)c2)cc1 (stereo not shown) | 8.83% |

| Compound | hERG current change (%, negative = inhibition) at 10uM |
| --- | --- |
| CCCCC(=O)Nc1c(-c2cccc(OC)c2)c(=O)c2ccccc2n1C | 7.06% |
| CCN(CC)CCCNC(=O)C1c2cc(OC)c(OC)cc2C(=O)N(C)C1c1cccs1 (stereo not shown) | -0.747% |
| Cc1nc2nc(Cc3ccccc3)[nH]n2c(=O)c1Cc1ccccc1 | 13.6% |
| CCC(C(=O)OC)n1c(-c2ccccc2)nc2ccccc2c1=O (stereo not shown) | 18.1% |
| Cc1cc(OCCn2ccnc2)cc(C(C)C)c1.O=C(O)C(=O)O | -10.7% |
| Cc1cc(C)nc(NC2=NCCN2C(=O)NC2CCCCC2)n1 | -17.7% |
| Cc1ccc(C(=O)NC23CC4CC(CC(C4)C2)C3)c(Cl)c1 | 8.25% |
| COc1ccc(C(=O)N(C)CC(=O)Nc2cccc(F)c2)cc1S(=O)(=O)NC1CCCC1 | -7.96% |
| O=C(CC(=O)N/N=C/c1ccccc1)NCc1ccccc1 | -7.64% |
| Cc1cccc(N=Nc2c(N)n[nH]c2N)c1 | 5.91% |
| CN(Cc1cccc(Cl)c1Cl)C(=O)c1ccc(NC(=O)CC#N)cc1 | -9.28% |
| CC1CCN(S(=O)(=O)CCNC(=O)c2ccc(F)cc2)CC1 | 4.45% |
| COc1cccc(C(=O)Nc2ccc(NC(=O)c3cc4ccccc4o3)c(OC)c2)c1 | 14.1% |
| CCOC(=O)c1nn(-c2ccccc2)c2nnc(Cc3ccc(Cl)cc3)c(=O)n12 | 3.57% |
| CCn1c(SCC(=O)n2nc(C)cc2C)nnc1-c1ccc2c(c1)OCO2 | -1.51% |
| CCN(CC)C(=O)CSc1nc(N)c(C(=O)Nc2ccc(OC)cc2)s1 | 3.63% |
| Cc1onc(-c2ccccc2)c1C(=O)Nc1sc2c(c1C#N)CCC2 | 1.63% |
| O=C(CC1C(=O)NCCN1C/C=C/c1ccccc1)NCCc1cnccn1 (stereo not shown) | 20.1% |
| COc1cccc(N(C(=O)c2ccco2)C(C(=O)NC2CCCC2)c2cccnc2)c1 (stereo not shown) | -6.87% |
| Cc1onc(-c2ccc(Cl)cc2)c1-c1ccnc(SCC(=O)Nc2ccc(C(C)C)cc2)n1 | 10.6% |
| CCOC(=O)c1ccc(NC(=O)C(CC)(CC)C(=O)OCC)cc1 | -23.3% |
| Cc1cc(NC(=O)CCC(=O)N(CC(=O)NC2CCCC2)c2cccc(C)c2C)no1 | 6.43% |

| Compound | hERG current change (%, negative = inhibition) at 10uM |
| --- | --- |
| ON1C2CCCCC2N(O)C1c1ccccc1F (stereo not shown) | 16.7% |
| COc1cccc(C2N(Cc3ccccc3)C(=O)C2(F)F)c1OC (stereo not shown) | -24.2% |
| C=CCc1c(C)nc(C)nc1N/N=C/c1ccccc1O | -34.3% |
| CCN(CC)C(=O)CC(c1ccc2c(c1)OCO2)c1c(OC)cc(OC)c2c(-c3ccccc3)cc(=O)oc12 (stereo not shown) | 5.08% |
| Cc1cc(NC(=O)CC(F)(F)F)n(-c2ccccc2)n1 | 16.3% |
| COc1cc2c(cc1O)[C@H](Cc1ccc(Oc3cc(C[C@@H]4NCCc5cc(OC)c(O)cc54)ccc3O)cc1)NCC2 | -8.32% |
| COc1ccc(CC(=O)NNC(=O)[C@@H]2CCCC[C@@H]2C(=O)O)cc1 | 8.94% |
| COc1ccc(CN(CC2CCCO2)C(=O)c2cc3sccc3n2C)c(OC)c1 (stereo not shown) | -32.9% |
| Cc1cc(C)cc(-n2nnnc2SCC(=O)Nc2nc(-c3ccc(Cl)cc3)cs2)c1 | 19.4% |
| Cc1ccc(N2C(=O)CSC2c2cccs2)cc1 (stereo not shown) | -13.2% |
| O=c1c2ccccc2nc2c3ccccc3c(NCc3ccco3)nn12 | -17.8% |
| CCOC(=O)c1cccc(NC(=O)CSc2nnc(COc3ccccc3)n2CC)c1 | -51.3% |
| Cc1cccc(N2CCN(C(=O)C3CCCN(S(=O)(=O)c4c(C)noc4C)C3)CC2)c1C (stereo not shown) | -22.3% |
| N#CC1=C(N)OC2=C(C(=O)CCC2)C1C1CC=CCC1 (stereo not shown) | -7.67% |
| COc1ccc(-c2csc3ncnc(N4CCN(S(=O)(=O)c5ccc(C)cc5)CC4)c23)cc1 | -3.07% |
| Cc1ccc(Nc2cc(C)nc3ncnn23)c(Cl)c1 | -8.02% |
| CC(=O)n1c(-c2ccccc2)c(CO)c2ccccc21 | -5.05% |
| CC(OC(=O)c1cc(Cl)ccc1[N+](=O)[O-])C(=O)NC(C)c1ccc(F)cc1 (stereo not shown) | -29% |
| CC1(C)C(=O)Nc2ccccc2N1C(=O)COc1ccc(S(=O)(=O)N2CCOCC2)cc1Cl | 3.13% |
| COc1ccc(CN2CCCC(N3CCc4ccccc4C3)C2)c(O)c1 (stereo not shown) | -60.1% |
| O=C(N/N=C\c1cccc(F)c1)c1ccc(-c2ccccc2)cc1 | 27% |
| O=C(Nc1ccc2c(c1)OCCO2)c1cccc(C(=O)Nc2ccc3c(c2)OCCO3)c1 | 17% |

| Compound | hERG current change (%, negative = inhibition) at 10uM |
| --- | --- |
| COc1ccccc1CNC(=O)CN1C(=O)NC2(CCCc3ccccc32)C1=O (stereo not shown) | 4.78% |
| CN(C(=O)CSc1nnc(NCc2ccccc2)s1)C1CCS(=O)(=O)C1 (stereo not shown) | -0.974% |
| O=C(COC(=O)c1cccc(S(=O)(=O)N2CCc3ccccc32)c1)NCc1ccco1 | 21.5% |
| O=C(Cc1ccc(Cl)cc1)NCc1nc(-c2ccccc2)no1 | 17.7% |
| CCC(C)(C)NC(=O)C(c1ccncc1)N(C(=O)c1sc(C)nc1C)c1ccc(C)cc1 (stereo not shown) | 20.3% |
| O=S(=O)(c1cccc(F)c1)N1CCCN(c2ccc(C(F)(F)F)cn2)CC1 | -27.3% |
| Cc1cc(=O)oc2cc(NC(=O)C3CC(=O)N(Cc4ccccc4)C3)ccc12 (stereo not shown) | 5.29% |
| S=C(NCc1ccc(Cl)cc1)NC1CCN(Cc2ccccc2)CC1 | -41.8% |
| CCn1c(SCC(=O)Nc2nc(C)cs2)nnc1-c1ccco1 | -50.8% |
| CSC1=N/C(=C\c2cccc(Cl)c2)C(=O)N1N(C)C | 9.35% |
| Cc1ccc(S(C)(=O)=NS(=O)(=O)c2cccc3nsnc23)cc1 (stereo not shown) | 7.47% |
| COc1cc2c(-c3ccc4[nH]ccc4c3)c(-c3ccc(C#N)cc3)oc(=O)c2cc1OC | 20.9% |
| Cc1nn(-c2ccccc2)c(C)c1C(=O)NCCc1ccc(Cl)cc1 | -19.5% |
| CN(Cc1ccccc1)C(=O)c1cn(C)c2ccc(S(=O)(=O)N3CCCC3)cc2c1=O | 12.6% |
| Clc1ccc(-c2cc(C3CCNCC3)[nH]n2)c(Cl)c1 | 10.2% |
| O=S(=O)(NC1CC1)c1ccc(Cl)cc1 | 9.82% |
| COc1cccc(N2CC(NC(=O)C(=O)c3c[nH]c4ccccc34)CC2=O)c1 (stereo not shown) | 11.6% |
| CCC(C(=O)NCc1ccc(F)cc1)N(Cc1ccco1)C(=O)c1snc(C(N)=O)c1N (stereo not shown) | -32% |
| Cc1ccc(C)c(Cn2nnc3c(=O)[nH]c(C4CCN(C(=O)c5ccco5)CC4)nc32)c1 | -27.3% |
